About 230 (0.21%) of roughly 110,000 compounds showed an effect of 50% or more. The list shows a part of the results.
Target: DPAP1 (Plasmodium falciparum, UniProt Q8IIJ9)
Experiment: primary screen, percent inhibition; read by cleavage of a fluorogenic dipeptide substrate; higher = more effect of the substance
Parameters: species or system P. falciparum D10 trophozoite lysates; single well
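Also: 30 min substrate incubation versus DMSO and 10 µM JCP410 controls.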

Chain of DPAP1 (Q8IIJ9 whole entry, looked up): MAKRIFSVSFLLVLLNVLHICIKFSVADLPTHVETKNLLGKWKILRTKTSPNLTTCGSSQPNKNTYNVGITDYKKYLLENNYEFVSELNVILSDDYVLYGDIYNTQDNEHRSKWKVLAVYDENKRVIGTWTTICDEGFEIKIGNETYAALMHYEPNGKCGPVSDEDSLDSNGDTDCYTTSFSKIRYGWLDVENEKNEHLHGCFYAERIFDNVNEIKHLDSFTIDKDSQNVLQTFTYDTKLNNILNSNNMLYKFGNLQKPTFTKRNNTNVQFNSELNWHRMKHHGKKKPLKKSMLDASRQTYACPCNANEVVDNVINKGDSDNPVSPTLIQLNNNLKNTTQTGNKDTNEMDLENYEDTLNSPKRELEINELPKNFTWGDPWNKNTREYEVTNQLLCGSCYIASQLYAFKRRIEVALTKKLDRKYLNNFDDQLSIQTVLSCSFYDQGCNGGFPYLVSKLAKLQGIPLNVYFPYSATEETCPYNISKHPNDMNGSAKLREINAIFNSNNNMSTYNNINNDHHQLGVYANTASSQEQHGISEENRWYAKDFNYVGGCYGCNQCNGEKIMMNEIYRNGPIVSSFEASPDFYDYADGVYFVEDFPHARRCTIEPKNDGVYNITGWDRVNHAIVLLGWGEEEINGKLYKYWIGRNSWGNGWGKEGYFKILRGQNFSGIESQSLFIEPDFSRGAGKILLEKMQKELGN

Q: `COc1cccc(CNCc2c(C(=O)O)n(Cc3ccccc3F)c3cc(C)ccc23)c1` was tested. Which “% Inhibition @ 10 uM” value did it give?
A: -0.177%

Q: For `Cc1ccc(S(=O)(=O)Nc2ccccc2Cl)cc1C(N)=O`, which “% Inhibition @ 10 uM” value is on record?
A: -1.65%

Q: For `O=C1c2cccnc2C(=O)N1C1CCCCC1`, which “% Inhibition @ 10 uM” value is on record?
A: -1.08%

Q: For `FC(F)(F)c1cccc(-c2nnn3c2nc(NCc2ccco2)c2ccccc23)c1`, which “% Inhibition @ 10 uM” value is on record?
A: -4.69%

Q: For `Cc1ccc(OCCCCn2ccnc2)cc1`, which “% Inhibition @ 10 uM” value is on record?
A: -5.96%

Q: `Cc1ccc(CN(CC(=O)NCc2ccncc2)S(=O)(=O)c2ccc(C)cc2)cc1` was tested. Which “% Inhibition @ 10 uM” value did it give?
A: 0.389%

Q: Which “% Inhibition @ 10 uM” value does the source give for `COc1ccc(OC)c(NC(=O)C2=C(C)NC(=O)NC2c2cccc(Cl)c2)c1` (centres unmarked) here?
A: 2.4%

Q: How did the “% Inhibition @ 10 uM” value turn out when `CCOC(=O)C1=C(C)N=c2s/c(=C\c3cccc4ccccc34)c(=O)n2C1c1ccc(C)cc1` (centres unmarked) was run?
A: 1.27%

Q: For `CC1=C(C(=O)NC(C)c2ccccc2)C2(CCC(C)CC2)OC1=O` (centres unmarked), which “% Inhibition @ 10 uM” value is on record?
A: 3.19%

Q: `Cc1ccccc1C(=O)Nc1ccc2nc(SCC(=O)NC3CC3)sc2c1` was tested. Which “% Inhibition @ 10 uM” value did it give?
A: -6.34%

Q: For `CCOC(=O)C1CCCCN1Cc1ccc(-c2ccccc2)cc1` (centres unmarked), which “% Inhibition @ 10 uM” value is on record?
A: 1.55%

Q: How did the “% Inhibition @ 10 uM” value turn out when `c1ccc(OCc2nn3c(Cn4cnc5ccccc54)nnc3s2)cc1` was run?
A: -0.45%

Q: For `Cc1ccccc1-c1cccc(C(=O)N[C@@H](CC(C)C)C(=O)NCC#N)c1`, which “% Inhibition @ 10 uM” value is on record?
A: -0.0207%

Q: With `Cc1nn(-c2ccccc2)c2sc(C(=O)n3nnc4ccccc43)cc12` as the molecule, how does the “% Inhibition @ 10 uM” value read?
A: -3.74%

Q: With `Cc1cc(NC=C2C(=O)CC(C)(C)CC2=O)no1` as the molecule, how does the “% Inhibition @ 10 uM” value read?
A: -4.41%

Q: `CCC(=O)Nc1ccc(N2CCOCC2)cc1` was tested. Which “% Inhibition @ 10 uM” value did it give?
A: -7.39%

Q: For `CC(C)CC(NC(=O)c1ccc(NC(=O)NCc2cccnc2)cc1)C(=O)NCC#N` (centres unmarked), which “% Inhibition @ 10 uM” value is on record?
A: 3.66%

Q: How did the “% Inhibition @ 10 uM” value turn out when `CCCc1n(CC(O)COCC2CC=CCC2)c2ccccc2[n+]1C` (centres unmarked) was run?
A: 2.48%

Q: For `CCCN(CCC)C(=O)CN1Cc2ccccc2C1=O`, which “% Inhibition @ 10 uM” value is on record?
A: -0.234%

Q: With `N#CCNC(=O)[C@@H]1CCCC[C@@H]1CS(=O)(=O)c1ccc(F)c(F)c1` as the molecule, how does the “% Inhibition @ 10 uM” value read?
A: -6.46%

Q: `CC(C)CC12CN3CCN(CC(C3)C1O)C2` (centres unmarked) was tested. Which “% Inhibition @ 10 uM” value did it give?
A: -0.759%

Q: With `Cc1ccccc1Oc1cc(-n2ncc(C#N)c2N)ncn1` as the molecule, how does the “% Inhibition @ 10 uM” value read?
A: -1.84%

Q: For `CCCCCCOC(=O)C1=C(C)NC(=O)NC1c1ccc(Cl)cc1Cl` (centres unmarked), which “% Inhibition @ 10 uM” value is on record?
A: 4.35%

Q: `O=C(CSc1ncnc2[nH]cnc12)Nc1ccccc1C(F)(F)F` was tested. Which “% Inhibition @ 10 uM” value did it give?
A: -9.28%

Q: For `CCOCCCNC(=O)C1CCN(Cc2nc(-c3ccc(Cl)cc3)oc2C)CC1`, which “% Inhibition @ 10 uM” value is on record?
A: -1.05%

Q: How did the “% Inhibition @ 10 uM” value turn out when `c1ccc(-c2cc3c(nn2)CCc2nonc2-3)cc1` was run?
A: -3.82%

Q: With `c1cc[n+](Cc2cccc3nc4ccccc4cc23)cc1` as the molecule, how does the “% Inhibition @ 10 uM” value read?
A: 1.82%

Q: Which “% Inhibition @ 10 uM” value does the source give for `CCn1c(COc2ccccc2C)nc2ccccc21` here?
A: -6.4%

Q: How did the “% Inhibition @ 10 uM” value turn out when `CCC(Oc1ccccc1)C(=O)NCCc1ccc(F)cc1` (centres unmarked) was run?
A: 1.65%

Q: How did the “% Inhibition @ 10 uM” value turn out when `CC(C)OCCCNC(=O)C1CCN(S(=O)(=O)N2CCCCC2)CC1` was run?
A: 5.23%

Q: Which “% Inhibition @ 10 uM” value does the source give for `Cc1nn(-c2ccccc2)c2nc(-c3ccco3)cc(C(F)(F)F)c12` here?
A: 1.72%

Q: How did the “% Inhibition @ 10 uM” value turn out when `Cn1c(CCNC(=O)c2ccccc2)nc2ccccc21` was run?
A: -0.58%

Q: For `COc1cc(C2c3[nH]c4ccccc4c3CCN2C(C)=O)cc2c1OCO2` (centres unmarked), which “% Inhibition @ 10 uM” value is on record?
A: 1.38%

Q: `COc1ccc2oc(=O)c(NC(=O)c3ccc(Br)cc3)cc2c1` was tested. Which “% Inhibition @ 10 uM” value did it give?
A: 5.91%

Q: Which “% Inhibition @ 10 uM” value does the source give for `CCSc1nnc(NC(=O)c2nc(SC(C)C)ncc2Cl)s1` here?
A: 2.41%

Q: `Cc1ccc(S(=O)(=O)c2nnn3c2nc(NC(C)C)c2ccccc23)cc1` was tested. Which “% Inhibition @ 10 uM” value did it give?
A: -3.08%

Q: With `O=C(c1cc2c(s1)-c1ccccc1OC2)N1CCN(c2ncccn2)CC1` as the molecule, how does the “% Inhibition @ 10 uM” value read?
A: 0.291%

Q: Which “% Inhibition @ 10 uM” value does the source give for `CN1CCN(CCCNC(=O)c2cc3c(-c4ccccc4F)nn(C)c3s2)CC1` here?
A: 2%

Q: With `Cc1[nH]c2ccccc2c1CCNC(=S)NCc1ccccc1` as the molecule, how does the “% Inhibition @ 10 uM” value read?
A: -3.94%

Q: With `COc1cc2c(cc1OC)C(c1ccccc1C(F)(F)F)N(C(C)=O)CC2` (centres unmarked) as the molecule, how does the “% Inhibition @ 10 uM” value read?
A: -2.32%

Q: `CCOC(=O)c1c(C)[nH]c(C)c1S(=O)(=O)N1CCC(C(=O)N(C)C2CCCCC2)CC1` was tested. Which “% Inhibition @ 10 uM” value did it give?
A: -7.86%

Q: `c1nc2c3c4c(sc3ncn2n1)CCCC4` was tested. Which “% Inhibition @ 10 uM” value did it give?
A: 8.58%

Q: Which “% Inhibition @ 10 uM” value does the source give for `COc1ccccc1Oc1ccccc1OC` here?
A: -11.9%

Q: For `CCn1c2ccccc2c2cc(CN3CCN(c4ccccc4C)CC3)ccc21`, which “% Inhibition @ 10 uM” value is on record?
A: -2.81%

Q: Which “% Inhibition @ 10 uM” value does the source give for `Cn1ncc(Br)c1C(=O)NC1CCCCC1` here?
A: -4.21%

Q: `O=C(C(NS(=O)(=O)c1cccc2nsnc12)c1ccccc1)N1CCN(c2ccccn2)CC1` (centres unmarked) was tested. Which “% Inhibition @ 10 uM” value did it give?
A: -3.23%

Q: Which “% Inhibition @ 10 uM” value does the source give for `CC/C(=N\O)c1ccc(CCCCCC(=O)O)s1` here?
A: -0.0369%

Q: How did the “% Inhibition @ 10 uM” value turn out when `C=CCn1c(SCC(=O)NCCO)nc2sc(C)c(C)c2c1=O` was run?
A: -2.53%

Q: Which “% Inhibition @ 10 uM” value does the source give for `N#CC1=C2SCC(O)(c3ccc(F)cc3)N2C(=O)CC1c1cccc(O)c1` (centres unmarked) here?
A: -0.0235%

Q: For `CCOCCCNc1oc(/C=C/c2cccs2)nc1C#N`, which “% Inhibition @ 10 uM” value is on record?
A: 1.46%

Q: Which “% Inhibition @ 10 uM” value does the source give for `O=C(NCCc1ccccc1)Nc1ccc(Cl)cc1` here?
A: -0.414%

Q: With `CCOC(=O)N1CCc2c(sc3c2C(=O)NC(c2cc(Br)ccc2O)N3)C1` (centres unmarked) as the molecule, how does the “% Inhibition @ 10 uM” value read?
A: -0.958%

Q: How did the “% Inhibition @ 10 uM” value turn out when `CCOc1ccc(CC(=O)Nc2c(C(N)=O)oc3ccccc23)cc1OCC` was run?
A: -13.5%

Q: For `N#CCNC(=O)[C@H](CSCc1ccc(C(F)(F)F)cc1)NC(=O)c1ccccc1`, which “% Inhibition @ 10 uM” value is on record?
A: 1.35%

Q: `CC(C)SCCCOc1ccccc1[N+](=O)[O-]` was tested. Which “% Inhibition @ 10 uM” value did it give?
A: -0.414%

Q: Which “% Inhibition @ 10 uM” value does the source give for `CCCOc1ccc(N2C(=O)CC(N3CCN(Cc4ccc5c(c4)OCO5)CC3)C2=O)cc1` (centres unmarked) here?
A: 2.44%

Q: For `CC(=O)OC1CCC2(C)C(=CCC3C2CCC2(C)C3CC3CC=CCC32C(C)=O)C1` (centres unmarked), which “% Inhibition @ 10 uM” value is on record?
A: 5.69%

Q: Which “% Inhibition @ 10 uM” value does the source give for `O=C(Nc1ccc2c3c(cccc13)CC2)c1cccnc1Cl` here?
A: -0.0619%

Q: Which “% Inhibition @ 10 uM” value does the source give for `Clc1ccc(CN2CCN(Cc3ccccc3)CC2)cc1Cl` here?
A: -0.0404%

Q: With `Cc1ccccc1OC(C)C(=O)Nc1cccc(C)c1C` (centres unmarked) as the molecule, how does the “% Inhibition @ 10 uM” value read?
A: 2.48%

Q: `COCCCN1C(=O)C(O)=C(C(=O)c2ccc3c(c2)CC(C)O3)C1c1ccccc1` (centres unmarked) was tested. Which “% Inhibition @ 10 uM” value did it give?
A: -4.06%

Q: Which “% Inhibition @ 10 uM” value does the source give for `COc1ccc(-c2c(C#N)c(N)nc3c2c(=O)n(C)c(=O)n3C)cc1O` here?
A: -1.8%

Q: For `Cc1ccc(Cn2cnc3ccccc32)cc1C`, which “% Inhibition @ 10 uM” value is on record?
A: -0.413%

Q: For `Cc1ccc2oc(-c3ccc(C(C)C)cc3)c(O)c(=O)c2c1`, which “% Inhibition @ 10 uM” value is on record?
A: 0.0539%

Q: Which “% Inhibition @ 10 uM” value does the source give for `CCN1CCCC1CNc1nc2ccc(C(=O)c3ccccc3)cc2n2cnnc12` (centres unmarked) here?
A: -3.61%
